Assay results published in PubChem BioAssay AID492947 (National Center for Advancing Translational Sciences (NCATS), 2010).
In all, about 330,000 compounds went through this assay and about 80 (0.02%) were called active. The inconclusive results got no clear call from the source; some entries with a clear call stand among them for comparison. The call rests on the fitted dose curve; in most records, active means well fitted activation curve with a large enough effect; inconclusive means small, poorly fitted or top-dose-only effect; inactive means flat fitted curve, though single readings scatter. No potency is given beside an inconclusive call; the fits are too rough.

Each compound was assayed against Beta-2 adrenergic receptor (Homo sapiens) (UniProt P07550) (assay: qHTS assay of beta-arrestin-biased ligands of beta2-adrenergic receptor). Details: beta-arrestin recruitment to beta2AR, cell-based reporter; series mostly up to 46.1 µM.
Summary of the method: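 Luminescence from a tTA-responsive luciferase, induced when recombinant beta-arrestin is recruited to recombinant beta2-AR, served as the agonism signal. Cells were exposed to compound for 18 hr at 37 degrees C; titrations spanned up to 46 microM.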
Further: nearly all actives have a fitted effect of over 65% in size.
Potency means the concentration at half of the fitted maximal effect; tags describe the fitted curve by direction and shape.

Chain of UniProt P07550 (P07550 whole entry, looked up): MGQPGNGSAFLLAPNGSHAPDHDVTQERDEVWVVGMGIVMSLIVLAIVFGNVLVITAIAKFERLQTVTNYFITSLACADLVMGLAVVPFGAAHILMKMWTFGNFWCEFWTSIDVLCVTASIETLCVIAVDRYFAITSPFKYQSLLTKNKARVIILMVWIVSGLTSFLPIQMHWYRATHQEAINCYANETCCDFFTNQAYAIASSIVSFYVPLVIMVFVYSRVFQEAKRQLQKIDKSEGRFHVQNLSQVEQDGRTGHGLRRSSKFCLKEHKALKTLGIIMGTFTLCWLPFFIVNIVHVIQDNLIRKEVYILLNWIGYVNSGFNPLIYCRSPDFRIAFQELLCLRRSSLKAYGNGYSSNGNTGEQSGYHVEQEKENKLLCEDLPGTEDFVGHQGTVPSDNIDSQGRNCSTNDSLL

SMILES	Potency
CN(C)C(CNC(=O)Cc1cccc(C(F)(F)F)c1)c1ccccc1 (stereo unspecified)	inactive
O=C(N/N=C/c1ccc(-c2ccccc2[N+](=O)[O-])o1)[C@H]1C[C@@H]1c1ccccc1	inconclusive [rising, single point]
C/C(CS(=O)(=O)c1ccc(Cl)c(Cl)c1)=N/NC(N)=S	inconclusive [rising, single point]
Cc1ccc(Nc2nc(CSc3nnc(-c4ccccc4)n3C)cs2)cc1	inactive
CC(CCc1ccccc1)NCC(O)c1cccc([N+](=O)[O-])c1 (stereo unspecified)	inconclusive [activator, partial curve]
Cc1ccc(-c2c3c(=O)n(C)c(=O)n(C)c3cn2-n2cnnc2)cc1	inconclusive [rising, single point]
COCCNC(=S)N/N=C(\C)c1ccc(OC(F)F)cc1	inconclusive [rising, single point]
CCOc1ccc(NS(=O)(=O)c2ccc(C(=O)N3CCN(c4ncccn4)CC3)cc2)cc1	inactive
Cc1ccc(NC(=O)CCC(=O)OCC(=O)c2ccc(Oc3ccc([N+](=O)[O-])cc3)cc2)cc1	inconclusive [rising, single point]
CCOC(=O)c1c(NC(=O)CC2Nc3cc(C)c(C)cc3NC2=O)sc(C)c1C (stereo unspecified)	inactive
Fc1cccc(Cl)c1C1Nc2cccc3cccc(c23)N1	inconclusive [rising, full curve, poor fit]
COc1cc(/C=N/Nc2nc(C)cc(C)n2)cc(OC)c1OC	inconclusive [rising, single point]
CCc1ccccc1NC(=S)NN	inconclusive [rising, single point]
CCN(Cc1cc(=O)oc2cc(C)ccc12)c1ccccc1	inconclusive [rising, single point]
Cc1cccc(NC(=S)NC(=O)C2CC2)c1	inconclusive [rising, single point]
Cc1nn2c(NCc3ccccn3)cc(C(C)(C)C)nc2c1-c1ccccc1	inactive
O=C(NC(=S)NN1CCCCC1c1cccnc1)c1ccc(Cl)cc1Cl (stereo unspecified)	inconclusive [activator, partial curve]
O=C(c1ccccc1)[C@@H]1[C@@H]2C(=O)N(c3ccc(F)cc3)C(=O)[C@@H]2C2CCCN21 (stereo partly specified)	inconclusive [rising, single point]
O=C(CSc1n[nH]c(=O)n1Cc1ccco1)c1ccc2c(c1)OCCO2	inactive
CCN(CC)CCOC(=O)c1ccc(N/C=C(/C#N)c2nc(-c3ccc4c(c3)OCO4)cs2)cc1	inactive
O=C(NC(=S)N1CCN(c2ccccc2)CC1)c1c(F)cccc1F	inconclusive [rising, single point]
Cc1cc2nn(-c3cccc4ccccc34)nc2cc1NC(=O)c1cccs1	inactive
CC(C)c1ccc(NC(=S)Nc2ccc3[nH]c(=O)[nH]c3c2)cc1	inactive
CCc1cccc(CC)c1NC(=O)CSc1nc2ccc(N3C(=O)C4C(C3=O)[C@H]3C=C[C@@H]4C3)cc2s1 (stereo partly specified)	inactive
Cc1n(CC(=O)c2ccc(F)cc2)c2ccccc2[n+]1C	inactive
CN(C)C(=S)Nc1nc2ccccc2s1	inconclusive [activator, full curve]

SMILES	Potency
Cc1nc(/N=C(\N)Nc2ccccc2)nc2ccccc12	inconclusive [rising, single point]
Cc1cccc(NNC(=S)Nc2c(C)cccc2C)c1	inconclusive [rising, single point]
CCCCCC1CC(/C(C)=N/NC(N)=O)OC1=O (stereo unspecified)	inconclusive [rising, single point]
Cc1nc(C(=O)NNC(=O)c2ccc(Cl)cc2)c(C(F)(F)F)o1	inactive
COc1cccc(Oc2cnc(N)nc2-c2ccc(OC)cc2O)c1	inconclusive [rising, single point]
CS(=O)(=O)Nc1ccc(-c2cn3cccnc3n2)cc1	inconclusive [rising, single point]
O=C(CSc1cccc2cccnc12)N1CCCC1	inconclusive [rising, single point]
CCOC(=O)C(Sc1cc(-c2ccccc2)nc2ncnn12)C(C)=O (stereo unspecified)	inconclusive [rising, single point]
Cc1cc2cc(CNC(=S)NCc3ccccc3)ccc2n1C	inactive
Fc1ccccc1NC(=S)Nn1cnnc1	inconclusive [rising, single point]
C=C(C)C1Cc2c(C)nn(-c3ccccn3)c2C1 (stereo unspecified)	inconclusive [rising, single point]
O=C(c1ccco1)N1CCCN(Cc2nc(-c3ccc4c(c3)OCO4)no2)CC1	inconclusive [rising, single point]
O=C(c1cccs1)N1N=C(c2ccc(O)cc2)CC1c1ccccc1 (stereo unspecified)	inconclusive [rising, single point]
Oc1c(Cl)cc(CN2CCCCC2)c2cccnc12	inconclusive [rising, single point]
CCCC(=O)Nc1ccc(S(=O)(=O)Nc2cc(OC)ncn2)cc1	inconclusive [rising, single point]
COC(=O)c1ccc(NC(=O)c2ccccc2)o1	inconclusive [rising, single point]
Cc1[nH]nc(-c2ccc(O)cc2O)c1-c1nc2ccccc2s1	inactive
Cc1nc(C)c(CC(=O)N/N=C/c2ccc(O)cc2)c(=O)[nH]1	inconclusive [rising, single point]
O=C(NC(=S)Nc1ccccc1Cl)C1CC1	inconclusive [rising, single point]
COc1ccc(CCNC(=S)Nc2cccc(C)c2)cc1	inactive
COC(=O)c1c(NC(=O)CS(=O)(=O)c2ccccc2)sc(C)c1C	inconclusive [activator, full curve]
C/C(=N\NC(=S)NCc1ccccc1)c1cccs1	inconclusive [rising, single point]
O=Nc1onc(-c2ccc([N+](=O)[O-])cc2)c1NO	inconclusive [rising, single point]
O=C(N/N=C\c1ccc(Sc2ccccn2)o1)c1cccc(Br)c1	inactive
Cc1ccccc1NC(=O)NCCCN1CCN(C)CC1	inactive
Cc1ccc(Nc2nc(CSc3nnc(-c4ccccc4C)n3C)cs2)cc1	inconclusive [rising, single point]

SMILES	Potency
NNc1nc2c(Cl)cccc2s1	inconclusive [rising, single point]
COc1ccc(C(=O)Oc2ccc(C(=S)N3CCCC3)cc2)cc1OC	inconclusive [rising, single point]
CCC1C(=NO)C(CC)C(c2ccccc2)NC1c1ccccc1 (stereo unspecified)	inactive
COc1cccc(C(=O)NCCCNC(=O)c2cccc(OC)c2)c1	inactive
NC(=S)N/N=C/c1ccc(-c2ccccc2)o1	inconclusive [rising, single point]
CC1=CC2=NC(=O)/C(=C\c3cccn3CCOc3cc(C)ccc3C)C(=N)N2O1	inconclusive [rising, single point]
COC1CCCN(C(=O)c2ccc3oc(Cc4ccc(Cl)cc4)nc3c2)C1 (stereo unspecified)	inactive
COc1cccc(C(=O)C2CCCN(Cc3cccc(-n4nc(C)cc4C)c3)C2)c1 (stereo unspecified)	inconclusive [rising, single point]
CCNC(=S)N/N=C/c1ccco1	inconclusive [rising, single point]
CNC(=O)c1[nH]cnc1C(=O)Nc1cccc(OC)c1	inactive
N#Cc1ncc(Cc2ccccc2)nc1C#N	inconclusive [rising, single point]
Cn1c2ccccc2c(=O)c2c(=O)n(-c3ccccc3)c(C3CCCCC3)nc21	inconclusive [rising, full curve, poor fit]
O=C(CCn1c(=O)c2cccn2c2ccccc21)Nc1ccc(F)cc1	inactive
O=C(Nc1cnn(C23CC4CC(CC(C4)C2)C3)c1)c1cnn2c(C(F)(F)F)cc(-c3ccco3)nc12	inactive
Cc1ccc2c(c1)COc1c3ccc(C(=O)N[C@@H](CO)C(C)C)cc3nn1-2	inactive
CC(C)(C)c1ccc2c(c1)OC(C(=O)N/N=C\c1ccc[nH]1)CO2 (stereo unspecified)	inconclusive [rising, single point]
COc1ccc(NC(=O)C(=O)NCC(c2ccco2)N2CCc3ccccc32)cc1 (stereo unspecified)	inconclusive [rising, single point]
Cc1ccc(-n2c(Cl)c(Cl)nc(Cl)c2=O)cc1	inconclusive [rising, single point]
CC1(N(O)C=C2C=CC(=O)C=C2)CCCCC1=O (stereo unspecified)	inconclusive [rising, single point]
CCOc1ccccc1N=NC1C(=O)N(C(N)=S)N=C1C (stereo unspecified)	active: 1.12 µM
COc1ccccc1NC(=O)CSCC(=O)N1c2ccccc2CCc2ccccc21	inconclusive [rising, single point]
C[N+](C)(C)CCCCCC(=O)/C=N/O	inconclusive [rising, single point]
CCn1ncc(Cl)c1C(=O)NC(=S)Nc1ccccc1Br	inconclusive [rising, single point]
COc1cc(NC(=O)c2ccc3c(SCC(=O)O)c4c(nc3c2)CCCC4)cc(OC)c1OC	inactive
